Shown are siRNA guide strands that differ only in the seed, positions 2 to 7.
Experiments:
GL261 = test: cell viability relative to siNT1 (ATP content); H4 human neuroglioma and GL261 mouse glioma; higher = less toxic; details: siRNA concentration 25 nM; 96 h; mouse
H4 = test: as above; details: siRNA concentration 10 nM; 96 h; human
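Further: cells reverse transfected with siRNA duplexes via lipid reagent, ATP read by luminescence, triplicate wells, values scaled to mean viability with non-targeting control siNT1.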

| Sequence | cell viability (GL261) | cell viability (H4) |
| --- | --- | --- |
| UGUGUUGACAUGUAAACCA | 32.7% | 66.2% |
| UGUGUUUACAUGUAAACCA | 32.8% | 63% |
| UGUUAAAACAUGUAAACCA | 66.6% | 100% |
| UGUUAACACAUGUAAACCA | 53.1% | 87.7% |
| UGUUAAGACAUGUAAACCA | 52.7% | 102% |
| UGUUAAUACAUGUAAACCA | 58.7% | 86.6% |
| UGUUACAACAUGUAAACCA | 60.4% | 56.6% |
| UGUUACCACAUGUAAACCA | 24.2% | 13.4% |
| UGUUACGACAUGUAAACCA | 71.7% | 99.9% |
| UGUUACUACAUGUAAACCA | 61.7% | 64.8% |
| UGUUAGAACAUGUAAACCA | 45.9% | 84% |
| UGUUAGCACAUGUAAACCA | 6.99% | 38.4% |
| UGUUAGGACAUGUAAACCA | 38.2% | 81.8% |
| UGUUAGUACAUGUAAACCA | 18.2% | 68.2% |
| UGUUAUAACAUGUAAACCA | 65.1% | 94.6% |
| UGUUAUCACAUGUAAACCA | 27.6% | 38% |
| UGUUAUGACAUGUAAACCA | 61.5% | 80.3% |
| UGUUAUUACAUGUAAACCA | 65.9% | 84.3% |
| UGUUCAAACAUGUAAACCA | 66.6% | 76% |
| UGUUCACACAUGUAAACCA | 45.1% | 34.5% |
| UGUUCAGACAUGUAAACCA | 58.2% | 56.5% |
| UGUUCAUACAUGUAAACCA | 49% | 61.9% |
| UGUUCCAACAUGUAAACCA | 40.9% | 19.7% |
| UGUUCCCACAUGUAAACCA | 20.3% | 47.8% |

| Sequence | cell viability (GL261) | cell viability (H4) |
| --- | --- | --- |
| UGUUCCGACAUGUAAACCA | 38% | 8.37% |
| UGUUCCUACAUGUAAACCA | 24.7% | 16.8% |
| UGUUCGAACAUGUAAACCA | 69.6% | 74.1% |
| UGUUCGCACAUGUAAACCA | 38.5% | 67.7% |
| UGUUCGGACAUGUAAACCA | 54% | 61.9% |
| UGUUCGUACAUGUAAACCA | 48.3% | 70.6% |
| UGUUCUAACAUGUAAACCA | 64.7% | 98.3% |
| UGUUCUCACAUGUAAACCA | 17.2% | 63.9% |
| UGUUCUGACAUGUAAACCA | 29.6% | 68% |
| UGUUCUUACAUGUAAACCA | 20.3% | 75.6% |
| UGUUGAAACAUGUAAACCA | 72.8% | 97% |
| UGUUGACACAUGUAAACCA | 60.7% | 39.5% |
| UGUUGAGACAUGUAAACCA | 61.8% | 59.2% |
| UGUUGAUACAUGUAAACCA | 28.2% | 42.9% |
| UGUUGCAACAUGUAAACCA | 51.3% | 80.5% |
| UGUUGCCACAUGUAAACCA | 7.58% | 3.14% |
| UGUUGCGACAUGUAAACCA | 41.7% | 95% |
| UGUUGCUACAUGUAAACCA | 26.3% | 6.41% |
| UGUUGGAACAUGUAAACCA | 45.9% | 30.4% |
| UGUUGGCACAUGUAAACCA | 27.5% | 17.5% |
| UGUUGGGACAUGUAAACCA | 34.5% | 21.5% |
| UGUUGGUACAUGUAAACCA | 28.9% | 29.2% |
| UGUUGUAACAUGUAAACCA | 58.5% | 68.6% |
| UGUUGUCACAUGUAAACCA | 27.8% | 37.4% |

| Sequence | cell viability (GL261) | cell viability (H4) |
| --- | --- | --- |
| UGUUGUGACAUGUAAACCA | 36.4% | 79.2% |
| UGUUGUUACAUGUAAACCA | 32.2% | 59.2% |
| UGUUUAAACAUGUAAACCA | 62.1% | 87% |
| UGUUUACACAUGUAAACCA | 69.3% | 105% |
| UGUUUAGACAUGUAAACCA | 52.6% | 98.3% |
| UGUUUAUACAUGUAAACCA | 66.1% | 97.8% |
| UGUUUCAACAUGUAAACCA | 44.9% | 52.4% |
| UGUUUCCACAUGUAAACCA | 28% | 24.7% |
| UGUUUCGACAUGUAAACCA | 56% | 70.1% |
| UGUUUCUACAUGUAAACCA | 57.9% | 61.4% |
| UGUUUGAACAUGUAAACCA | 41.8% | 88.5% |
| UGUUUGCACAUGUAAACCA | 61.9% | 94.3% |
| UGUUUGGACAUGUAAACCA | 38.2% | 60.2% |
| UGUUUGUACAUGUAAACCA | 10.6% | 85.8% |
| UGUUUUAACAUGUAAACCA | 49.1% | 83.4% |
| UGUUUUCACAUGUAAACCA | 60.2% | 80.9% |
| UGUUUUGACAUGUAAACCA | 59% | 89.9% |
| UGUUUUUACAUGUAAACCA | 57.3% | 87.6% |
| UUAAAAAACAUGUAAACCA | 55.7% | 109% |
| UUAAAACACAUGUAAACCA | 60.8% | 83.9% |
| UUAAAAGACAUGUAAACCA | 76.5% | 103% |
| UUAAAAUACAUGUAAACCA | 50.1% | 104% |
| UUAAACAACAUGUAAACCA | 70.8% | 98.9% |
| UUAAACCACAUGUAAACCA | 50.4% | 27.3% |

| Sequence | cell viability (GL261) | cell viability (H4) |
| --- | --- | --- |
| UUAAACGACAUGUAAACCA | 59.6% | 80.5% |
| UUAAACUACAUGUAAACCA | 39.7% | 71.1% |
| UUAAAGAACAUGUAAACCA | 60.6% | 115% |
| UUAAAGCACAUGUAAACCA | 28.9% | 36.7% |
| UUAAAGGACAUGUAAACCA | 50.1% | 67.2% |
| UUAAAGUACAUGUAAACCA | 46.2% | 43.2% |
| UUAAAUAACAUGUAAACCA | 64.7% | 94.3% |
| UUAAAUCACAUGUAAACCA | 40% | 67.9% |
| UUAAAUGACAUGUAAACCA | 74.8% | 89.8% |
| UUAAAUUACAUGUAAACCA | 64.9% | 83% |
| UUAACAAACAUGUAAACCA | 56.7% | 77.4% |
| UUAACACACAUGUAAACCA | 45% | 73.7% |
| UUAACAGACAUGUAAACCA | 46.8% | 86.4% |
| UUAACAUACAUGUAAACCA | 62.7% | 70.2% |
| UUAACCAACAUGUAAACCA | 40% | 92.6% |
| UUAACCCACAUGUAAACCA | 35.8% | 51.2% |
| UUAACCGACAUGUAAACCA | 51.7% | 72.6% |
| UUAACCUACAUGUAAACCA | 46.9% | 58.8% |
| UUAACGAACAUGUAAACCA | 80.6% | 70% |
| UUAACGCACAUGUAAACCA | 60.9% | 68.6% |
| UUAACGGACAUGUAAACCA | 76.6% | 82% |
| UUAACGUACAUGUAAACCA | 62.4% | 86.8% |
| UUAACUAACAUGUAAACCA | 59.5% | 97.8% |
| UUAACUCACAUGUAAACCA | 57.1% | 67.8% |

| Sequence | cell viability (GL261) | cell viability (H4) |
| --- | --- | --- |
| UUAACUGACAUGUAAACCA | 79.5% | 90.2% |
| UUAACUUACAUGUAAACCA | 41.5% | 76.1% |
| UUAAGAAACAUGUAAACCA | 52.4% | 84.6% |
| UUAAGACACAUGUAAACCA | 23% | 19.5% |
| UUAAGAGACAUGUAAACCA | 45% | 78.8% |
| UUAAGAUACAUGUAAACCA | 39.8% | 59.8% |
| UUAAGCAACAUGUAAACCA | 46.3% | 67% |
| UUAAGCCACAUGUAAACCA | 13.7% | 20.9% |
| UUAAGCGACAUGUAAACCA | 46.7% | 80.6% |
| UUAAGCUACAUGUAAACCA | 36% | 35.4% |
| UUAAGGAACAUGUAAACCA | 43.5% | 97.6% |
| UUAAGGCACAUGUAAACCA | 64.1% | 36.6% |
| UUAAGGGACAUGUAAACCA | 44.4% | 72.6% |
| UUAAGGUACAUGUAAACCA | 28.6% | 67.1% |
| UUAAGUAACAUGUAAACCA | 51.1% | 105% |
| UUAAGUCACAUGUAAACCA | 25.2% | 65.5% |
| UUAAGUGACAUGUAAACCA | 58.6% | 37.3% |
| UUAAGUUACAUGUAAACCA | 35.9% | 61% |
| UUAAUAAACAUGUAAACCA | 54.5% | 109% |
| UUAAUACACAUGUAAACCA | 55.3% | 86.9% |
| UUAAUAGACAUGUAAACCA | 46.3% | 101% |
| UUAAUAUACAUGUAAACCA | 51.1% | 99.9% |

From the supplement of paper PMC8948288
